# Experimental data reported in article PMC6919601, “Identification of Plasmodium dipeptidyl aminopeptidase allosteric inhibitors by high throughput screening” (PLoS ONE, 2019).
# Where “and” joins values, the source holds several entries; their conditions need not be identical. Identical values can stand only once. Among all 110,000 compounds or so, about 230 (0.21%) showed an effect of 50% or more. This is one part of the list.
# Target: DPAP1 (Plasmodium falciparum, UniProt Q8IIJ9)
# Assay: primary screen, percent inhibition; read by cleavage of a fluorogenic dipeptide substrate; higher = more effect of the substance
# Parameters: species or system P. falciparum D10 trophozoite lysates; single well
# 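Further: 30 min substrate incubation versus DMSO and 10 µM JCP410 controls.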
# Chain of DPAP1 (Q8IIJ9 whole entry, looked up): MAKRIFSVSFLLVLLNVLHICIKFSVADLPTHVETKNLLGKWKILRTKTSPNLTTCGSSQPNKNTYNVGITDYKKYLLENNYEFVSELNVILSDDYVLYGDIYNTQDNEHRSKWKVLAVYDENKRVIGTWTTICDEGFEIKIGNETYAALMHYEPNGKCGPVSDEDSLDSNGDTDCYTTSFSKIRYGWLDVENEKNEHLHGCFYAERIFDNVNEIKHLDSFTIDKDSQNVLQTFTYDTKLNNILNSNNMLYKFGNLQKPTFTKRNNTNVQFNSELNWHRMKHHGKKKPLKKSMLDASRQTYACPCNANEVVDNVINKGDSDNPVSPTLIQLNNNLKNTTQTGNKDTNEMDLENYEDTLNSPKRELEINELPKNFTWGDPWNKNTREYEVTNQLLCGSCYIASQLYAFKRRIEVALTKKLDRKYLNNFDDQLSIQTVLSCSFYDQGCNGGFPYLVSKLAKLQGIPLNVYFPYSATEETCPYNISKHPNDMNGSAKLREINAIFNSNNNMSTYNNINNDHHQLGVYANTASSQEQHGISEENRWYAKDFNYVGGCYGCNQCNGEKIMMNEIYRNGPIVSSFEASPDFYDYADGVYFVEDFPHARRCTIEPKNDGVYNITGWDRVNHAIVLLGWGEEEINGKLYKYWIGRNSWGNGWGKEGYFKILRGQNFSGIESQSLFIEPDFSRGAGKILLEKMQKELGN
row,Compound,% Inhibition @ 10 uM
1,CS(=O)(=O)N(CC(=O)N1CCc2ccccc2C1)c1ccc(Cl)cc1,-8.78%
2,CN(C)CCOC(=O)C12CC3(C)CC(C)(CC(C)(C3)C1)C2,-4.23%
3,Cc1cccc(OCC(=O)Nc2cccc(C#N)c2)c1,-2.3%
4,COc1ccc(CCNC(=O)CSc2ncnc3sc4c(c23)CCCC4)cc1OC,5.59%
5,COc1ccc(S(=O)(=O)Nc2cc(C)ccn2)cc1,4.69%
6,CC(=O)C1=C(O)C(=O)N(c2nc3ccccc3s2)C1c1ccccc1F (centres unmarked),-3.75%
7,CCc1ccc(CNCc2ccc3c(c2)OCO3)cc1,-1.1%
8,Cc1nn(S(=O)(=O)c2ccc(Cl)cc2)c(C)c1Sc1ccccc1,2.55%
9,Cc1ccc(Nc2nc(Cl)nc(Nc3ccc(C(C)C)cc3)n2)cc1,3.53%
10,Cn1ccc(C(=O)N2CCCc3ccccc32)n1,-0.622%
11,CN1/C(=C\C(=O)c2cccnc2)Sc2ccccc21,-4.91%
12,Cc1ccc(-c2nc(CS(=O)(=O)CC(=O)NCCCN(Cc3ccccc3)C(C)C)c(C)o2)cc1,-0.354%
13,CC(C)CCn1c(-c2ccco2)nc2ccccc21,2.73%
14,CCOC(=O)N1CCN(C(=O)CN(c2cccc(OC)c2)S(=O)(=O)c2ccccc2)CC1,4.36%
15,CC(=O)c1ccc(N2CCN(Cc3c(C)n(C)n(-c4ccccc4)c3=O)CC2)cc1,-1.5%
16,O=C1NC(=O)C(=Cc2ccc(-c3cccc(Cl)c3)o2)C(=O)N1,6.17%
17,COc1cc2c(cc1OC)C1(CCCC1)CN(C(=O)c1cc(Br)ccc1OC)C2,-3.53%
18,CCCCN(C)c1ncnc2c1sc1nc(N3CCOCC3)c3c(c12)CCCC3,3.47%
19,COc1ccc(NC(=O)C2CC2)cc1OC,-2.48%
20,CCc1c(C)nc2sc3c(=O)[nH]c(=O)[nH]c3c2c1C,-1.6%
21,CCc1nnc(NC(=O)c2ccc(CN3C(=O)C(C)=C(c4ccc(C)c(C)c4)S3(=O)=O)cc2)s1,2.31%
22,CCn1c(/C=C/c2ccc(OC)cc2)nc2ccccc2c1=O,-5.23%
23,Cc1ccc(NC(=O)c2cc3ccccc3o2)cc1Cl,0.147%
24,O=C(O)c1c[nH]c(=O)[nH]c1=O,0.221%
25,O=S(=O)(c1ccc2ccccc2c1)N1CCN(c2ccccc2)CC1,0.345%

row,Compound,% Inhibition @ 10 uM
1,Cc1ccc(-c2nn3c(C)nnc3c3ccccc23)cc1S(=O)(=O)NCCN1CCOCC1,7.25%
2,CCn1c(=O)sc2cc(Br)ccc21,-0.446%
3,Cc1ccc(-n2nc(C)c3c(C)c(CCC(=O)N4CCOCC4)c(C)nc32)cc1C,2.57%
4,COc1cccc(S(=O)(=O)NCc2ccc(C(=O)Nc3ccc(Cl)c(Cl)c3)cc2)c1,3.58%
5,COc1cc2c(cc1OC)C(C)N(c1ncnc3c1cnn3-c1cccc(C)c1)CC2 (centres unmarked),3.04%
6,CC(Oc1ccc(/C=C2/C(=N)N3C(=NC2=O)SN=C3S(C)(=O)=O)cc1)c1ccccc1 (centres unmarked),-5.27%
7,O=C(CCN1C(=O)c2ccccc2C1=O)NCc1cccnc1,-5.28%
8,O=C1N=C(N2CCOCC2)S/C1=C\c1ccc(OCc2ccccc2)cc1,0.147%
9,Cc1ccc(C(=O)NC2(C(F)(F)F)C(=O)Nc3c2c(=O)[nH]c(=O)n3-c2ccc(Cl)cc2)cc1 (centres unmarked),-3.39%
10,CCN(CC)CCCC(C)Nc1ccnc2cc3ccccc3cc12 (centres unmarked),-3.48%
11,COc1cc(C2=N/C(=C\c3coc4c(Cl)cc(Cl)cc4c3=O)C(=O)O2)cc(OC)c1OC,-1.15%
12,COc1cc(OC)cc(C(=O)Nc2ccc(C(C)C)cc2)c1,-14.1%
13,O=C(NCc1ccc2c(c1)OCO2)C1CCN(S(=O)(=O)c2ccc3nc(O)ccc3c2)CC1,-6.87%
14,CCOc1ccc(C2(C)NC(=O)N(CCN(C)C)C2=O)cc1 (centres unmarked),-2.15% and -2.63%
15,CCOC(=O)CNC1CC(C)(C)NC(C)(C)C1,2.22%
16,COc1ccc(C2C(C#N)=C(N)Oc3[nH]nc(C(C)C)c32)cc1OC (centres unmarked),3.65%
17,CC(C)(C)C(=O)N1CCC[C@H]1C(O)(c1ccccc1)c1ccccc1,-5.13%
18,CC(C)Cn1c(=O)c2ccccc2n2c(-c3cc(Cl)ccc3O)nnc12,-0.206%
19,O=C(NCc1ccc(F)cc1)C1CCC(CNc2c(N3CCOCC3)c(=O)c2=O)CC1 (centres unmarked),-0.447%
20,O=C(/C=C/c1ccccc1)N1CCOCC1,-3.13%
21,CCN(CC)c1cc(Cl)c2nonc2c1[N+](=O)[O-],5.66%
22,CN(C)c1ccc(/C=C2\C(=O)N(c3ccccc3F)N=C2c2ccccc2)cc1,3.98%
23,COc1ccccc1C(=O)N/C(=C\c1ccc2c(c1)OCO2)C(=O)N1CCCCC1,3.95%
24,O=C(c1ccccc1)c1ccc(C(=O)N2CCN(c3ccccc3)CC2)cc1,3.47%
25,Cc1cc(-c2ccc(C)c(S(=O)(=O)Nc3cc(C)on3)c2)on1,0.879%
